# Measurements reported in PubChem BioAssay AID1460 (National Center for Advancing Translational Sciences (NCATS), 2008).
# Hit rate of the full screen: of about 270,000 compounds, about 5,800 (2.1%) were called active. This list was built around the results that the source calls inconclusive (neither active nor inactive); the mix of calls is not that of the screen. Calls follow the shape of the dose curve; as a rule, active = well fitted inhibition curve with a large enough effect; inconclusive = small, poorly fitted or top-dose-only effect; inactive = flat fitted curve, though single readings scatter. Potencies of inconclusive entries are doubtful fits and often do not repeat.
# Target: Microtubule-associated protein tau (Homo sapiens) (UniProt P10636)
# UniProt P10636, sequence (P10636 whole entry, looked up): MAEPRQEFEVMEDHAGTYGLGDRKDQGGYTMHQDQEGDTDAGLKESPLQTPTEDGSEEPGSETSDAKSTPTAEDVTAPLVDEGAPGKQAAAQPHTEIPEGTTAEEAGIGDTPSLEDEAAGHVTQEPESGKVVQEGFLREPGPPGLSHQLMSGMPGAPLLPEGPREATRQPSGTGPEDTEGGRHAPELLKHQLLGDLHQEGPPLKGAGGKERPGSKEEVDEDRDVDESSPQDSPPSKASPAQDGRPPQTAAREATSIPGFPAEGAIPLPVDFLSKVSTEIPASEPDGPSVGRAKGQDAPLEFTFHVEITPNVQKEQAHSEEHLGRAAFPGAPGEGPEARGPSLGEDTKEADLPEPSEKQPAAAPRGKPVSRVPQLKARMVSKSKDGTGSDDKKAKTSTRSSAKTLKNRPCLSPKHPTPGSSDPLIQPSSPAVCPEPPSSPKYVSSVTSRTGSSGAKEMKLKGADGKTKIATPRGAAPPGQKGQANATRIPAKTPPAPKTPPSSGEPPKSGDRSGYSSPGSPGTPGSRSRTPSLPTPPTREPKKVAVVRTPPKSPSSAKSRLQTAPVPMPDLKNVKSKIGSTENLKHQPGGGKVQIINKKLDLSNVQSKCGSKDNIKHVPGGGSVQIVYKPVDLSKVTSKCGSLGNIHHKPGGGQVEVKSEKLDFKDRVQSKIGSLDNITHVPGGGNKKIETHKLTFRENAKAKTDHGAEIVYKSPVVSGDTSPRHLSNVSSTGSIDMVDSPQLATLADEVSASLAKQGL
# Experiment: qHTS for Inhibitors of Tau Fibril Formation, Thioflavin T Binding; also: nearly all actives have a fitted effect of over 55% in size
# Details: recombinant tau K18 P301L (four-repeat tau fragment), heparin-induced fibrillization, ThT fluorescence; series mostly up to 57.4 µM; activity, negative = inhibition: at the top concentration
# In short: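 Aggregation was driven by heparin (20 uM final) acting on recombinant tau […] bearing P301L in 100 mM sodium acetate pH 7; fibrils were detected with Thioflavin T.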
# % is scaled to controls: 0 for no effect and ±100 for the full control effect; potency is read from the fitted curve at half-maximal effect; tags tell the direction and shape of the fitted curve.
SMILES,Potency,"activity, negative = inhibition"
COc1ccc(-c2nn(-c3ccccc3)cc2/C=N/Nc2ccc(S(N)(=O)=O)cc2[N+](=O)[O-])cc1OC,"inconclusive: 2.24 µM [inhibitor, full curve]",–
CCN1CCN(c2ncnc3c2cnn3-c2ccc(C)c(C)c2)CC1,"inconclusive: 11.2 µM [inhibitor, partial curve, poor fit]",–
O=C(CN1C(=O)COc2ccc(S(=O)(=O)NC3CCCC3)cc21)Nc1ccc(Cl)cc1,"inconclusive: 31.6 µM [activator, partial curve]",–
O=[N+]([O-])c1ccc(C(c2sc3nc(-c4ccco4)nn3c2O)N2CCN(c3cccc(Cl)c3)CC2)cc1 (configuration not stated),"inconclusive: 25.1 µM [inhibitor, single point]",–
Cc1ccc(S(=O)(=O)C/N=C(/NC(=S)N(c2ccccc2)c2ccccc2)c2ccccc2)cc1,"inconclusive: 11.2 µM [inhibitor, partial curve]",–
COc1ccc(-c2nc3ccccc3o2)cc1NC(=O)COc1ccc(C(C)(C)C)cc1,–,inactive: 2.14%
CCOc1ccc(S(=O)(=O)NCC(c2ccco2)S(=O)(=O)c2ccc(F)cc2)cc1 (configuration not stated),–,inactive: -5.2%
COc1cccc(N2CC(NC(=O)c3ccc(S(=O)(=O)N4CCCCC4)cc3)CC2=O)c1 (configuration not stated),–,inactive: -2.25%
CN(C)S(=O)(=O)c1cccc(NC(=O)COC(=O)/C=C/c2ccc(Br)o2)c1,–,inactive: -13.8%
CCCCOC1CC(c2ccc(OCc3ccc(OC)cc3)c(OC)c2)N(C)O1 (configuration not stated),"inconclusive: 15.8 µM [inhibitor, partial curve]",–
Cc1ccc(C)c(Cn2nc(-c3cc(C)ccc3C)ccc2=O)c1,"inconclusive: 31.6 µM [inhibitor, single point]",–
COc1cccc2c1CCC(NC(C)=O)C2=O (configuration not stated),"inconclusive: 25.1 µM [inhibitor, single point]",–
CCOc1ccc(NC(=O)C2CCN(c3nnnn3-c3ccccc3)CC2)cc1,–,inactive: -10.7%
COC(=O)c1sc2ccccc2c1N,"inconclusive: 10 µM [inhibitor, partial curve, poor fit]",–
CN1CCN(c2ccc(NC(=O)c3ccc(-c4cccc([N+](=O)[O-])c4)o3)cc2)CC1,"inconclusive: 15.8 µM [inhibitor, partial curve]",–
COc1ccc(CCNC2CC(C)N(C)CC2C)cc1OC (configuration not stated),–,inactive: -6.2%
CCOc1cc(/C=N/N=C(\N)c2nonc2N)cc(Br)c1OCc1cccc2ccccc12,–,inactive: -16.2%
CCOc1ccc(C(=O)Nc2cccc(OCc3cc(=O)n4cc(C)sc4n3)c2)cc1,–,inactive: 1.2%
CCc1ccc2oc(C(=O)Nc3sc4c(c3C(=O)NC)CCCC4)cc(=O)c2c1,"inconclusive: 3.55 µM [inhibitor, partial curve]",–
Cc1cccc(NC(=O)c2nc[nH]c2C(=O)N[C@@H](Cc2ccccc2)C(=O)OC(C)(C)C)c1,"inconclusive: 1.78 µM [activator, partial curve, poor fit]",–
O=C(NC1CCCCC1)c1ccc2c(c1)N(Cc1ccc(Cl)cc1)C(=O)c1ccccc1S2(=O)=O,–,inactive: -8.2%
CCOc1ccc(-c2ccc(SCc3ccccn3)nn2)cc1,"inconclusive: 1.58 µM [inhibitor, full curve]",–
CCN(CC)Cc1c(O)ccc2c([N+](=O)[O-])c(C)n(-c3ccc(OC)cc3)c12,"inconclusive: 39.8 µM [inhibitor, single point]",–

SMILES,Potency,"activity, negative = inhibition"
CC(Sc1nc(=O)cc(N)n1CCc1ccccc1)C(=O)Nc1ccccc1C#N (configuration not stated),–,inactive: -11.7%
CCOC(=O)C1CCN(c2ncnc3c2c(-c2ccccc2)cn3-c2ccccc2)CC1,"inconclusive: 35.5 µM [inhibitor, partial curve, poor fit]",–
CCCCc1c(O)nc(SCC(=O)N2CCOCC2)[nH]c1=O,"inconclusive: 31.6 µM [inhibitor, single point]",–
Cc1ccccc1OCC(=O)Nc1ccc(N2CCN(C(=O)C(C)C)CC2)c(Cl)c1,"inconclusive: 28.2 µM [inhibitor, partial curve, poor fit]",–
CCSC1(SCC)N=C(N)C2(C#N)C(c3ccc(OC)c(OC)c3OC)C12C#N (configuration not stated),"inconclusive: 39.8 µM [inhibitor, single point]",–
O=c1c(Cl)c(Cl)cnn1Cc1nnc(-c2ccc(Cl)cc2)o1,active: 28.2 µM,–
COc1ccc(-c2cc(C(=O)N3CCN(c4ccccc4OC)CC3)no2)cc1OC,"inconclusive: 6.31 µM [inhibitor, full curve]",–
COc1ccc(NS(=O)(=O)c2ccc(NC(=S)NC(=O)c3cccnc3)cc2)nn1,–,inactive: -13.1%
COc1ccc(OC)c2c1C(=O)C(Cl)=C(Cl)C2=O,active: 4.47 µM,–
CCc1cccc(NC(=O)Cn2nc(-c3cc(C)ccc3C)ccc2=O)c1,"inconclusive: 39.8 µM [inhibitor, single point]",–
O=C(CN1C(=O)S/C(=C/c2cccs2)C1=O)N1CCOCC1,–,inactive: -8%
COc1cc(OC)c(OC)cc1/C=N/N(C)c1ccccc1,"inconclusive: 15.8 µM [inhibitor, partial curve]",–
CCOc1ccc(-c2csc(/C(C#N)=C/c3ccc(Br)cc3)n2)cc1,"inconclusive: 2.51 µM [inhibitor, full curve]",–
Cc1ccc(N=C2NC(=O)c3cc([N+](=O)[O-])ccc32)cc1,"inconclusive: 7.94 µM [inhibitor, partial curve]",–
Clc1ccc(-c2nnc3n2CCCC3)cc1,–,inactive: -2.93%
COc1ccc(NC(=O)CSc2cc(-c3ccccc3)nc(C)n2)cc1,–,inactive: -8.57%
Cc1cccc(CNc2cc(-c3ccccc3CN(C)C)ncn2)c1,–,inactive: -11.5%
Cc1nonc1OCCNc1ccc([N+](=O)[O-])cc1,"inconclusive: 6.31 µM [inhibitor, partial curve]",–
COc1ccc(/C=N/n2cc(-c3ccccc3)nc2N)cc1,"inconclusive: 15.8 µM [inhibitor, partial curve]",–
COc1cccc(-c2csc(N3CCN(C(=S)Nc4ccc(Cl)cc4)CC3)n2)c1,–,inactive: -10.2%
Nc1nc(SCc2ccc(Cl)cc2Cl)ns1,"inconclusive: 22.4 µM [inhibitor, partial curve]",–
CN(C)C(=O)c1ccc(-c2nc(N(C)Cc3ccco3)c3ccccc3n2)cc1,"inconclusive: 31.6 µM [inhibitor, single point]",–
COc1ccc(OCCSc2nnc(-c3cccnc3)n2N)cc1,"inconclusive: 7.08 µM [inhibitor, partial curve]",–

SMILES,Potency,"activity, negative = inhibition"
CCOc1ccc(Nc2nc(N)nc(CSC(=S)N3CCOCC3)n2)cc1,"inconclusive: 12.6 µM [inhibitor, partial curve, poor fit]",–
O=C1/C(=N\S(=O)(=O)c2cccs2)C([n+]2cccc(Cc3ccccc3)c2)=C([O-])c2ccccc21,"inconclusive: 20 µM [inhibitor, partial curve]",–
CCN(Cc1ccccc1)C(=O)c1cc2c(s1)-c1c(C)cccc1OC2,–,inactive: -10.2%
Cc1ccc(C)c(N2CCN(C3=C(c4ccccc4)C(=O)c4ccccc43)CC2)c1,"inconclusive: 35.5 µM [inhibitor, partial curve]",–
COc1cccc(N2CCN(C(=O)c3cnn(-c4ccc(C)cc4C)c3C3CCN(C(=O)OC(C)(C)C)CC3)CC2)c1,"inconclusive: 12.6 µM [inhibitor, partial curve]",–
O=C(O)c1cc(-c2ccc(/C=N/NC(=S)Nc3ccccc3)o2)ccc1Cl,"inconclusive: 15.8 µM [inhibitor, partial curve]",–
CN(C)/C=C/C(=O)c1ncc(C(F)(F)F)cc1Cl,–,inactive: 0.222%
CC(C)C[C@@H](CC(=O)N[C@H](CC(=O)N[C@@H]1CCCC[C@H]1C(=O)N[C@H](CC(=O)N[C@@H](CCC(=O)O)CC(=O)O)CC(C)C)C(C)C)NC(=O)[C@@H]1CCCC[C@H]1N,–,inactive: -7.64%
COc1cccc(-c2[nH]nc3c2C(c2ccoc2)C(C#N)=C(N)O3)c1 (configuration not stated),–,inactive: -17.9%
COc1cccc(-c2nc(-c3ccc4c(c3)NC(=O)CO4)cs2)c1,"inconclusive: 5.01 µM [inhibitor, full curve, poor fit]",–
COc1ccc(Br)cc1CNc1ccc(O)cc1,active: 12.6 µM,–
O=C1c2cccc3cccc(c23)C(=O)N1CCN1CCN(CC(O)COCc2ccc(Cl)cc2)CC1 (configuration not stated),"inconclusive: 39.8 µM [inhibitor, single point]",–
CC(=C/c1ccccc1)/C=N/n1c(-c2ccncc2)n[nH]c1=S,"inconclusive: 8.91 µM [inhibitor, partial curve]",–
CCN(CC)c1ccc(/C=N/NC(=O)Cc2nnc(NC(=O)Nc3ccccc3)s2)cc1,"inconclusive: 14.1 µM [inhibitor, partial curve]",–
COc1ccc(-c2cc(C(=O)OCC(=O)c3cccc([N+](=O)[O-])c3)c3cc(C)ccc3n2)cc1,–,inactive: -0.321%
COc1ccc2nc(N3CCC(C)CC3)c(C#N)cc2c1,active: 35.5 µM,–
COc1cc(O)c(C(=O)/C=C/c2ccc(O)c(OC)c2)c(OC)c1,active: 1.78 µM,–
C=C1C(=O)[C@@]23[C@H](O)C[C@@H]4C(C)(C)CC[C@H](O)[C@@]4(C)[C@@H]2CC[C@@H]1[C@H]3O,"inconclusive: 15.8 µM [inhibitor, partial curve, poor fit]",–
COc1cccc(-c2ccc3c(N)c(C(=O)Nc4cc(F)ccc4F)sc3n2)c1,"inconclusive: 0.708 µM [inhibitor, full curve]",–
CCOC(=O)C1CCCN(C(=O)c2ccc(-n3ccc4ccccc43)s2)C1 (configuration not stated),"inconclusive: 17.8 µM [inhibitor, single point]",–
Cc1ccc(NC(=O)c2ccc(N3CCOCC3)c([N+](=O)[O-])c2)cc1S(=O)(=O)N1CCOCC1,"inconclusive: 17.8 µM [inhibitor, single point]",–
